The results in this text go back to a collection of fitness landscapes (doi:10.1016/j.celrep.2020.107928).

To fix the notation:
B1: Caulobacter ParB omega fusion; a variant is named by its letters at X, in order, B8GW30 (parent)
chain: MESVVVGEPGMSEGRRGLGRGLSALLGEVDAAPAQAPGEQLGGSREAPIEILQRNPDQPRRTFREEDLEDLSNSIREKGVLQPILVRPSPDTAGEYQIVAGERAWRAAQRAGLKTVPIMVRELDDLAVLEIGIIENVQRADLNVLEEALSYKVLMEKFERTQENIAQTIGKSXSHVANXMRLLXLPDEVQSYLVSGELTAXHARAIAAAADPVALAKQIIEGGLSVRETEALARKAPNLSAGKSKGGRPPRVKDTDTQALESDLSSVLGLDVSIDHRGSTGTLTITYATLEQLDDLCNRLTRGI

Whole data set: some 81,000 sequences, median “one-hybrid fitness for binding parS DNA” near -0.17, cut for the highest 2% near 0.51. Some of the results follow.

This assay covers variants of B1. Put plainly: one-hybrid fitness for binding parS DNA (scaled: cognate 1, non-cognate 0); higher = stronger binding. The settings on record: with parS DNA site. The procedure, abridged: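 Fitness is the rescaled log change in variant-to-wild-type read ratio, measured by Illumina sequencing of plasmids before and after bacterial one-hybrid selection. The scale puts cognate at 1 and non-cognate at 0. Selection of Caulobacter ParB libraries, four specificity codons randomised, took place in E. coli USO with a HIS3 reporter, site 19 bp from the promoter, over 48 hours at 37°C on M9-minus-histidine with 0.1 mM IPTG and 5 mM 3-AT.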
HIVG: the “one-hybrid fitness for binding parS DNA” value was ≤ 0.2.

Turning to TPIA, the “one-hybrid fitness for binding parS DNA” value was ≤ 0.2.

With KRYE, the “one-hybrid fitness for binding parS DNA” value is ≤ 0.2.

With NNLG, the “one-hybrid fitness for binding parS DNA” value was ≤ 0.2.

Regarding PTAC, the “one-hybrid fitness for binding parS DNA” value was ≤ 0.2.

As for MHKT, the “one-hybrid fitness for binding parS DNA” value is ≤ 0.2.

Consider FSTF, for which the “one-hybrid fitness for binding parS DNA” value is ≤ 0.2.

With WRMA, the “one-hybrid fitness for binding parS DNA” value is ≤ 0.2.

For FQGR, the “one-hybrid fitness for binding parS DNA” value was ≤ 0.2.

With IMQR, the “one-hybrid fitness for binding parS DNA” value is ≤ 0.2.

With GCRV, the “one-hybrid fitness for binding parS DNA” value is ≤ 0.2.

Consider AARG, for which the “one-hybrid fitness for binding parS DNA” value was ≤ 0.2.

On to PAAH, for which the “one-hybrid fitness for binding parS DNA” value was ≤ 0.2.

Regarding VATF, the “one-hybrid fitness for binding parS DNA” value is ≤ 0.2.

On to QQGI, for which the “one-hybrid fitness for binding parS DNA” value is ≤ 0.2.

For the variant HITG, the “one-hybrid fitness for binding parS DNA” value is ≤ 0.2.

Take CKQS: the “one-hybrid fitness for binding parS DNA” value was ≤ 0.2.

Consider RRKW, for which the “one-hybrid fitness for binding parS DNA” value was ≤ 0.2.

Consider RVDM, for which the “one-hybrid fitness for binding parS DNA” value stood at 0.258.

As for ECHS, the “one-hybrid fitness for binding parS DNA” value is ≤ 0.2.

On to TIKN, for which the “one-hybrid fitness for binding parS DNA” value was ≤ 0.2.

For the variant TCTT, the “one-hybrid fitness for binding parS DNA” value is ≤ 0.2.

With MIRF, the “one-hybrid fitness for binding parS DNA” value is ≤ 0.2.

As for TYMR, the “one-hybrid fitness for binding parS DNA” value is ≤ 0.2.

Regarding FGLV, the “one-hybrid fitness for binding parS DNA” value is ≤ 0.2.

With KLAM, the “one-hybrid fitness for binding parS DNA” value was ≤ 0.2.

Take RFFL: the “one-hybrid fitness for binding parS DNA” value was ≤ 0.2.

For the variant AGSN, the “one-hybrid fitness for binding parS DNA” value is ≤ 0.2.

With YQVG, the “one-hybrid fitness for binding parS DNA” value was ≤ 0.2.

Consider AIGR, for which the “one-hybrid fitness for binding parS DNA” value is ≤ 0.2.

On to RWYP, for which the “one-hybrid fitness for binding parS DNA” value was ≤ 0.2.

NTRG: the “one-hybrid fitness for binding parS DNA” value was ≤ 0.2.

For the variant YEAG, the “one-hybrid fitness for binding parS DNA” value is ≤ 0.2.

Take IAGT: the “one-hybrid fitness for binding parS DNA” value was ≤ 0.2.

RDTP: the “one-hybrid fitness for binding parS DNA” value was ≤ 0.2.

For QPLL, the “one-hybrid fitness for binding parS DNA” value was ≤ 0.2.

On to TTFM, for which the “one-hybrid fitness for binding parS DNA” value is ≤ 0.2.

As to GFTT, the “one-hybrid fitness for binding parS DNA” value was ≤ 0.2.

For the variant EACS, the “one-hybrid fitness for binding parS DNA” value was ≤ 0.2.

On to HIII, for which the “one-hybrid fitness for binding parS DNA” value was ≤ 0.2.

Turning to FMLR, the “one-hybrid fitness for binding parS DNA” value was ≤ 0.2.

As to PDIW, the “one-hybrid fitness for binding parS DNA” value is ≤ 0.2.

On to PWSM, for which the “one-hybrid fitness for binding parS DNA” value is ≤ 0.2.

As to MESG, the “one-hybrid fitness for binding parS DNA” value was ≤ 0.2.

As for PPPW, the “one-hybrid fitness for binding parS DNA” value is ≤ 0.2.

On to DWKG, for which the “one-hybrid fitness for binding parS DNA” value was ≤ 0.2.

For YWCR, the “one-hybrid fitness for binding parS DNA” value is ≤ 0.2.

Turning to MVLT, the “one-hybrid fitness for binding parS DNA” value is ≤ 0.2.

For the variant NKYQ, the “one-hybrid fitness for binding parS DNA” value was ≤ 0.2.

Consider HDDF, for which the “one-hybrid fitness for binding parS DNA” value was ≤ 0.2.

Turning to RHDI, the “one-hybrid fitness for binding parS DNA” value is ≤ 0.2.

As for WVHS, the “one-hybrid fitness for binding parS DNA” value was ≤ 0.2.

For KRSI, the “one-hybrid fitness for binding parS DNA” value is ≤ 0.2.

In the case of RIGH, the “one-hybrid fitness for binding parS DNA” value is 0.246.

Regarding FLRL, the “one-hybrid fitness for binding parS DNA” value was ≤ 0.2.

As for VTRE, the “one-hybrid fitness for binding parS DNA” value is ≤ 0.2.

Turning to HCDK, the “one-hybrid fitness for binding parS DNA” value was ≤ 0.2.

Take RCYW: the “one-hybrid fitness for binding parS DNA” value worked out at 0.314.

Turning to MQTG, the “one-hybrid fitness for binding parS DNA” value is ≤ 0.2.

For KHKT, the “one-hybrid fitness for binding parS DNA” value was ≤ 0.2.

As for VKQH, the “one-hybrid fitness for binding parS DNA” value was ≤ 0.2.

IYLD: the “one-hybrid fitness for binding parS DNA” value was ≤ 0.2.

Take NRQA: the “one-hybrid fitness for binding parS DNA” value was ≤ 0.2.

For LRQH, the “one-hybrid fitness for binding parS DNA” value was ≤ 0.2.

As to HTKW, the “one-hybrid fitness for binding parS DNA” value was ≤ 0.2.

Consider SVCS, for which the “one-hybrid fitness for binding parS DNA” value is ≤ 0.2.

As for NTNA, the “one-hybrid fitness for binding parS DNA” value was ≤ 0.2.

Turning to GARA, the “one-hybrid fitness for binding parS DNA” value was ≤ 0.2.

As to LKNS, the “one-hybrid fitness for binding parS DNA” value is ≤ 0.2.

Turning to FTHP, the “one-hybrid fitness for binding parS DNA” value was ≤ 0.2.

PFWS: the “one-hybrid fitness for binding parS DNA” value was ≤ 0.2.

As for PTSI, the “one-hybrid fitness for binding parS DNA” value was ≤ 0.2.

As for THYG, the “one-hybrid fitness for binding parS DNA” value was ≤ 0.2.

As for GHTL, the “one-hybrid fitness for binding parS DNA” value is ≤ 0.2.

Regarding WLMC, the “one-hybrid fitness for binding parS DNA” value was ≤ 0.2.

As to RYCR, the “one-hybrid fitness for binding parS DNA” value is ≤ 0.2.

For YTKY, the “one-hybrid fitness for binding parS DNA” value is ≤ 0.2.

Take DAPG: the “one-hybrid fitness for binding parS DNA” value is ≤ 0.2.

As to DYPW, the “one-hybrid fitness for binding parS DNA” value is ≤ 0.2.

In the case of RKFP, the “one-hybrid fitness for binding parS DNA” value was ≤ 0.2.

In the case of IFNL, the “one-hybrid fitness for binding parS DNA” value was ≤ 0.2.

For AGSC, the “one-hybrid fitness for binding parS DNA” value was ≤ 0.2.

Regarding QMNH, the “one-hybrid fitness for binding parS DNA” value was ≤ 0.2.

For the variant HPIM, the “one-hybrid fitness for binding parS DNA” value was ≤ 0.2.

Turning to RERL, the “one-hybrid fitness for binding parS DNA” value was ≤ 0.2.

Take QCNR: the “one-hybrid fitness for binding parS DNA” value was ≤ 0.2.

Take NPRQ: the “one-hybrid fitness for binding parS DNA” value was ≤ 0.2.

As for MRLT, the “one-hybrid fitness for binding parS DNA” value is ≤ 0.2.

For RKYR, the “one-hybrid fitness for binding parS DNA” value was ≤ 0.2.

As to PAFV, the “one-hybrid fitness for binding parS DNA” value is ≤ 0.2.

Turning to AVIT, the “one-hybrid fitness for binding parS DNA” value was ≤ 0.2.

Regarding DSDG, the “one-hybrid fitness for binding parS DNA” value is ≤ 0.2.

Take VLGR: the “one-hybrid fitness for binding parS DNA” value was ≤ 0.2.

On to WSYF, for which the “one-hybrid fitness for binding parS DNA” value is ≤ 0.2.

For the variant TNGG, the “one-hybrid fitness for binding parS DNA” value was ≤ 0.2.

On to YDIG, for which the “one-hybrid fitness for binding parS DNA” value is ≤ 0.2.

As to MTMG, the “one-hybrid fitness for binding parS DNA” value was ≤ 0.2.

Regarding QRDQ, the “one-hybrid fitness for binding parS DNA” value was ≤ 0.2.

As to TSCS, the “one-hybrid fitness for binding parS DNA” value is ≤ 0.2.

On to QKDE, for which the “one-hybrid fitness for binding parS DNA” value was ≤ 0.2.

On to ETQS, for which the “one-hybrid fitness for binding parS DNA” value was ≤ 0.2.

On to EHWS, for which the “one-hybrid fitness for binding parS DNA” value is ≤ 0.2.

For the variant CCNG, the “one-hybrid fitness for binding parS DNA” value was ≤ 0.2.

Turning to QYPS, the “one-hybrid fitness for binding parS DNA” value was ≤ 0.2.

Turning to KNRT, the “one-hybrid fitness for binding parS DNA” value is ≤ 0.2.

Take RYGW: the “one-hybrid fitness for binding parS DNA” value is ≤ 0.2.

As to DWGT, the “one-hybrid fitness for binding parS DNA” value is ≤ 0.2.

Regarding VRHE, the “one-hybrid fitness for binding parS DNA” value is ≤ 0.2.

As to PYCM, the “one-hybrid fitness for binding parS DNA” value is ≤ 0.2.

On to ITEW, for which the “one-hybrid fitness for binding parS DNA” value was ≤ 0.2.

With NTWK, the “one-hybrid fitness for binding parS DNA” value is ≤ 0.2.

In the case of YSKI, the “one-hybrid fitness for binding parS DNA” value was ≤ 0.2.

Turning to TSLR, the “one-hybrid fitness for binding parS DNA” value is ≤ 0.2.

As to HRTA, the “one-hybrid fitness for binding parS DNA” value is ≤ 0.2.

Take YHRS: the “one-hybrid fitness for binding parS DNA” value was ≤ 0.2.

QNSC: the “one-hybrid fitness for binding parS DNA” value was ≤ 0.2.

Consider CFYT, for which the “one-hybrid fitness for binding parS DNA” value was ≤ 0.2.

For the variant PQCP, the “one-hybrid fitness for binding parS DNA” value is ≤ 0.2.

As for RFLN, the “one-hybrid fitness for binding parS DNA” value was found to be 0.415.

For CGQC, the “one-hybrid fitness for binding parS DNA” value is ≤ 0.2.

For RTKS, the “one-hybrid fitness for binding parS DNA” value was found to be 0.815.

With QYFN, the “one-hybrid fitness for binding parS DNA” value is ≤ 0.2.

On to RPDW, for which the “one-hybrid fitness for binding parS DNA” value was ≤ 0.2.

With HALM, the “one-hybrid fitness for binding parS DNA” value was ≤ 0.2.

Consider GQCG, for which the “one-hybrid fitness for binding parS DNA” value is ≤ 0.2.

As to HDSC, the “one-hybrid fitness for binding parS DNA” value was ≤ 0.2.

On to AIRP, for which the “one-hybrid fitness for binding parS DNA” value is ≤ 0.2.

In the case of AVDS, the “one-hybrid fitness for binding parS DNA” value is ≤ 0.2.

As to GLWQ, the “one-hybrid fitness for binding parS DNA” value was ≤ 0.2.

For ASDS, the “one-hybrid fitness for binding parS DNA” value is ≤ 0.2.

As to FSNM, the “one-hybrid fitness for binding parS DNA” value is ≤ 0.2.

Turning to VTAA, the “one-hybrid fitness for binding parS DNA” value was ≤ 0.2.

Regarding WRDA, the “one-hybrid fitness for binding parS DNA” value was ≤ 0.2.

With RGKW, the “one-hybrid fitness for binding parS DNA” value stood at 0.232.

On to GTTC, for which the “one-hybrid fitness for binding parS DNA” value was ≤ 0.2.

With MRFG, the “one-hybrid fitness for binding parS DNA” value is ≤ 0.2.

For QVGE, the “one-hybrid fitness for binding parS DNA” value is ≤ 0.2.

On to PANS, for which the “one-hybrid fitness for binding parS DNA” value is ≤ 0.2.

With HRFW, the “one-hybrid fitness for binding parS DNA” value was ≤ 0.2.

As for MQDS, the “one-hybrid fitness for binding parS DNA” value was ≤ 0.2.

In the case of PNMI, the “one-hybrid fitness for binding parS DNA” value was ≤ 0.2.

Take YVLL: the “one-hybrid fitness for binding parS DNA” value is ≤ 0.2.

On to QALT, for which the “one-hybrid fitness for binding parS DNA” value is ≤ 0.2.

With RNKP, the “one-hybrid fitness for binding parS DNA” value is ≤ 0.2.

Take VMCC: the “one-hybrid fitness for binding parS DNA” value is ≤ 0.2.

Consider NSTH, for which the “one-hybrid fitness for binding parS DNA” value was ≤ 0.2.

With LPRD, the “one-hybrid fitness for binding parS DNA” value is ≤ 0.2.

Turning to DFKS, the “one-hybrid fitness for binding parS DNA” value was ≤ 0.2.

Consider LLRY, for which the “one-hybrid fitness for binding parS DNA” value is ≤ 0.2.

With WDNR, the “one-hybrid fitness for binding parS DNA” value was ≤ 0.2.

For the variant GTKF, the “one-hybrid fitness for binding parS DNA” value was ≤ 0.2.

In the case of WNAN, the “one-hybrid fitness for binding parS DNA” value is ≤ 0.2.

For GVGR, the “one-hybrid fitness for binding parS DNA” value was ≤ 0.2.
